Data reported in the supplement of paper PMC3334620.
In all, about 33,000 sequences were measured (“E-score (-0.5 to 0.5)”: median about -0.01, highest 2% from about 0.26 on). This is one part of the list.

target: Ste12 (UniProt P13574); experiment: PBM E-score (8-mer binding enrichment) (E-score (-0.5 to 0.5)); higher = stronger / more preferred TF binding; most listed sequences are background and not binding sites; details: protein concentration: 200 nM; construct: GST-DNA-binding domain
In short: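 For each ungapped eight-base word taken together with its reverse complement, the Universal PBM Analysis Suite assigned an E-score. Binding data came from GST-tagged yeast transcription factors, applied at about 100-200 nM, on universal all-10-mer Agilent arrays made double-stranded by primer extension. Fluorescent anti-GST marked bound protein, and scans were normalised with masliner.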

Row | Sequence | PBM E-score
1 | AAGGGACG | -0.065
2 | GGGAATCA | -0.141
3 | CAAAGCCG | -0.00016
4 | GTGGCCAA | 0.0326
5 | GGCCTTTA | -0.0491
6 | GAAGTAGC | -0.063
7 | AACCACAT | 0.114
8 | GATGGGGA | -0.114
9 | CGCTAGGA | -0.176
10 | ACCTGCGT | -0.0683
11 | CGCATACG | -0.0951
12 | CCTTAAGG | -0.196
13 | GGGTTGAA | 0.145
14 | ATCAGTCC | -0.325
15 | CAAAGTCC | -0.143
16 | TATGTGAA | 0.0278
17 | GCCTAACC | -0.105
18 | AGATCAAG | 0.046
19 | AAGGTTCG | -0.185
20 | GTTGGCAA | 0.0378
21 | TAGAGTAA | -0.0164
22 | CCAGGTAA | -0.0812
23 | AACTAATA | 0.231
24 | CCGTGTCC | -0.0529
25 | ACGTATCA | 0.14

Row | Sequence | PBM E-score
26 | CCAGGTAC | -0.114
27 | AACCTGCC | -0.125
28 | CGGAGAAA | 0.18
29 | CAGCAGAC | -0.134
30 | CAGCGCCG | -0.054
31 | CCCCTTCG | -0.193
32 | GCACATAA | 0.0869
33 | AACTATAA | 0.188
34 | TAAGCCTA | -0.0855
35 | CTTCTAAC | -0.0172
36 | CAGCTCCG | 0.0325
37 | CTCTAACC | 0.0529
38 | GACATGAA | 0.0824
39 | CGCTTTCA | 0.0838
40 | CGCGCACG | -0.00644
41 | CTACAAGA | -0.00425
42 | CGTCTGTC | -0.0024
43 | AATACTCG | 0.0328
44 | ACTACAAG | -0.0663
45 | ACTTCGCG | 0.0548
46 | CGACGCAC | -0.0687
47 | GATGGACC | 0.0165
48 | AGCCTATG | -0.109
49 | GTTCTCAA | 0.125
50 | ACTTGGCA | -0.163

Row | Sequence | PBM E-score
51 | CGTAGCAG | -0.125
52 | GGACTTCA | -0.137
53 | CTGCCTAA | -0.074
54 | GGAACAGA | 0.0917
55 | ATTTATGG | 0.233
56 | GCCACCAC | -0.172
57 | CTCAACCC | -0.0989
58 | CACTTGCC | -0.189
59 | CATGACCC | -0.14
60 | CTCAGGTC | -0.0882
61 | CGTTTTCC | -0.0434
62 | CCGCAGAA | 0.0414
63 | ATGACCCG | -0.156
64 | GCATACGA | -0.105
65 | AAGCGTGC | -0.2
66 | TCTTTGCA | 0.0593
67 | CATGTAGC | -0.019
68 | AGTCGACA | 0.0271
69 | CTTAACTC | 0.0673
70 | TATGGCCA | -0.0534
71 | AATTGTCG | 0.0625
72 | CCTCGAAA | 0.176
73 | AAGGAGTA | -0.0852
74 | CGACGTGC | -0.126
75 | ATCGTCTA | -0.0181

Row | Sequence | PBM E-score
76 | CGAACTTA | -0.0357
77 | ACCAGCAC | -0.0823
78 | CCAAGCCG | -0.119
79 | AGCCCGAG | -0.12
80 | AGAGCTCT | -0.184
81 | CGGCCAGC | -0.154
82 | GGCGATGA | -0.0312
83 | GGTTCACA | -0.0161
84 | GAGTGCCC | -0.0794
85 | ACTTCCCT | -0.0919
86 | CAGGCGTA | -0.0983
87 | TAAGTTGA | 0.127
88 | CCCAGAGC | -0.272
89 | GGCATACA | -0.119
90 | ACAGTCAC | -0.143
91 | CACCCACC | 0.242
92 | CCCCAGAA | 0.0424
93 | TAAGCGCA | -0.116
94 | ACCAATGG | -0.133
95 | AAGGTATA | 0.0928
96 | ATCCGCGA | 0.123
97 | AACGCATG | 0.0525
98 | ATACATCG | 0.0903
99 | AGATTTGC | 0.0417
100 | ATCCATTA | -0.0147

Row | Sequence | PBM E-score
101 | CGCATCCG | -0.212
102 | ACGGGGCG | 0.159
103 | CATGGCGC | -0.223
104 | CACGACGC | -0.0651
105 | CGCCCGCC | 0.154
106 | ACGACTAG | -0.0953
107 | AAACTCCA | 0.0535
108 | ATACAATC | 0.0838
109 | ACTCCTCA | -0.194
110 | AGGTCGTA | -0.115
111 | AGTACAGC | -0.26
112 | AAAACCGC | 0.0403
113 | AGTGCAGA | 0.0178
114 | AACAAGTT | 0.154
115 | TCTATCAA | 0.0277
116 | GCTATGCC | -0.196
117 | CCCTGCTA | -0.225
118 | AATAAAGT | 0.207
119 | AGAGAATG | 0.0223
120 | CTCACACC | -0.106
121 | AGTCATGG | -0.142
122 | ACTACCAG | 0.0509
123 | CGTGTGGC | -0.158
124 | CGCCTATC | -0.0614
125 | GCTCTTGA | -0.0672

Row | Sequence | PBM E-score
126 | CATTGGTA | -0.0979
127 | ATGTCCTC | -0.0515
128 | ACCATGCG | -0.063
129 | GGGTCGCA | 0.184
130 | ATCGCCAA | -0.138
131 | CAGTGTGA | 0.0235
132 | CGATGTGC | -0.097
133 | GTCAACGA | -0.109
134 | CGACCTGC | -0.0774
135 | AAGATGAA | 0.18
136 | ACCCCTAT | 0.00239
137 | AGTATCCA | -0.0382
138 | ATCAAGAA | 0.202
139 | CAACCTCC | -0.0635
140 | ATGCCTAG | -0.0736
141 | TAACGCCA | 0.0882
142 | TGATTACA | -0.00637
143 | AGCTACTG | -0.00093
144 | AGTGGAAG | -0.306
145 | ATGAACTG | 0.175
146 | CCCGACTC | 0.0124
147 | GATTGTTA | -0.0146
148 | CCAGTAGC | 0.0741
149 | CCTCAGCG | -0.13
150 | AACGAGCT | -0.117

Row | Sequence | PBM E-score
151 | AAACCTTC | -0.0506
152 | CTGTATGA | 0.0532
153 | ACGTAGAG | -0.288
154 | TAACTACA | -0.0145
155 | CAAAACAC | 0.191
156 | CACCCTCC | 0.213
157 | CGATCCGA | -0.0155
158 | CTGCGCAA | -0.0942
159 | CACCCTGA | -0.00848
160 | GACAGGAA | 0.0114
161 | ACCATTCT | -0.00079
162 | GTGCGTTA | 0.156
163 | TGATACAA | 0.339
164 | GATGGCCA | -0.0587
165 | ACTCCCAC | -0.115
166 | TGGAATAA | 0.0344
167 | ATAGGAGG | -0.0464
168 | GCTCGCTA | -0.0187
169 | AGTACCAT | -0.133
170 | AGTGAGAA | 0.204
171 | AAACCTCG | 0.0455
172 | ACAGTCCT | 0.0491
